Source: article PMC4336329 (PLoS ONE, 2015)
Out of some 310,000 compounds screened, about 2,200 (0.71%) showed an effect of 50% or more. Effects have a minus sign here. Some of the results follow.

The compounds below were run against human ether-à-go-go-related gene (hERG) potassium channel (human, UniProt Q12809) (assay: primary screen, population patch clamp on CHO cells stably expressing hERG).
Sequence of human ether-à-go-go-related gene (hERG) potassium channel (Q12809 whole entry, looked up): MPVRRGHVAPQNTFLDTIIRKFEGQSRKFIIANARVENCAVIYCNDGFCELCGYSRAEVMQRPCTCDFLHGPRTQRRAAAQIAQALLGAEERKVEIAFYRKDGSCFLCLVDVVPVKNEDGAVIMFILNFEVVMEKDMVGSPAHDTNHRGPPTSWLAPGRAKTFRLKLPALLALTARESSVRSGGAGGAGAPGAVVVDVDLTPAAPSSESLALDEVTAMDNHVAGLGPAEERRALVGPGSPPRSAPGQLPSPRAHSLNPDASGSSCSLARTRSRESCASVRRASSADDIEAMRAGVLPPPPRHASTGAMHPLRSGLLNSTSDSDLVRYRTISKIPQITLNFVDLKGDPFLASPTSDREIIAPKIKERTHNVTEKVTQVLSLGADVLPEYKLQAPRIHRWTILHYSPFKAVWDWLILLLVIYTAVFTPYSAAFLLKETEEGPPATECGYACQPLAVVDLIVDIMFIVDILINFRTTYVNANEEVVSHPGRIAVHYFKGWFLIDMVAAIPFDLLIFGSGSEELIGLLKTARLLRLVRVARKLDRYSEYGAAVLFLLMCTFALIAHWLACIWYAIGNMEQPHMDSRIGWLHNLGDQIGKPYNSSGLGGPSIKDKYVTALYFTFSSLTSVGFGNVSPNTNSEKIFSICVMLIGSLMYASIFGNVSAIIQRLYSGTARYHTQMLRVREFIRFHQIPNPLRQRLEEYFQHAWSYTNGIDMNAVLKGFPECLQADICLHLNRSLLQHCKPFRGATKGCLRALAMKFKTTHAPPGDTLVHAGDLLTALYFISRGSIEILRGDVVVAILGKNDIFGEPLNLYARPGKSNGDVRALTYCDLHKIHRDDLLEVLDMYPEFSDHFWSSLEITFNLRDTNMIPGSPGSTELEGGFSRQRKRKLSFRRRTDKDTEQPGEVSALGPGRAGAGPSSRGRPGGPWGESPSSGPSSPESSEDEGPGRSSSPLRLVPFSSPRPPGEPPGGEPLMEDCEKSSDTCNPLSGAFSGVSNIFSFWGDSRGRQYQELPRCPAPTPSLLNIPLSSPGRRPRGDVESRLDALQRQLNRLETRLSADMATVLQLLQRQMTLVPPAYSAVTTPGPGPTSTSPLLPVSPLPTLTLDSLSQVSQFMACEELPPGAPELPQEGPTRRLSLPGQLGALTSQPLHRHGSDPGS

SMILES	hERG current change (%, negative = inhibition) at 1uM [%]
O=C(c1cc(S(=O)(=O)N2CCC3(CC2)OCCO3)ccc1F)N1CCC2(CC1)OCCO2	-4.21
CCOc1ccc(NC(=S)Nc2ccc(OCc3ccccc3)cc2)cc1	6.56
O=C1/C(=C/c2ccccc2)SC(=S)N1CC(=O)N1CCCCC1c1cccnc1 (stereo not shown)	8.82
CCC(/C=C1\Sc2ccc(OC)cc2N1CCO)=C\c1sc2ccc(OC)cc2[n+]1CCO.[Cl-]	-5.4
O=C(N/N=C/c1ccccn1)c1ccc(N/N=C/c2ccccn2)cc1.O=S(=O)(O)O	21.4
Cc1cc(C)c(S(=O)(=O)c2ccccc2)c(N(C)C)n1	12.2
Cc1cc(C)cc(NC(=O)C2CCCN2S(=O)(=O)c2cccc3cccnc23)c1 (stereo not shown)	-0.644
COc1ccc(C(=O)N2CCC(C(=O)c3ccc(F)cc3)CC2)cc1	-66.1
CCOc1ccccc1NC(=O)CSc1nnc(-c2ccccn2)n1Cc1ccco1	-4.82
O=C(N/N=C/c1cccs1)/C(=C/c1ccccc1)NC(=O)c1ccccc1	4.29
CN(C)C(=O)CSc1nnc(CCN)o1.Cl	0.24
COc1ccc(S(=O)(=O)NCC(c2ccco2)N2CCOCC2)cc1 (stereo not shown)	-8.75
O=C1Cc2ccccc2C(=O)N1Cc1ccccc1	7.56
O=C(CSc1ncccn1)Nc1ccc(N2CCOCC2)cc1	6.92
Cn1c(C(=O)N2CCC(C(=O)N3CCN(Cc4ccc5c(c4)OCO5)CC3)CC2)cc2sccc21	-3.6
COc1ccc(NC(=O)c2sc3ncn(CC(=O)N4CCCCC4)c(=O)c3c2C)cc1OC	17.6
CC(C)NC(=O)COc1coc(CN2CCN(c3ccccc3)CC2)cc1=O	10
COc1cc(Cl)ccc1OCc1cc(C(=O)N2CCCC(OC)C2)no1 (stereo not shown)	8.17
CN(CCN1CCOCC1)C(=O)c1cc(COc2ccc(F)c(F)c2)on1	8.85
O=C(/C=C/c1ccccc1)Nn1cnc2ccccc2c1=O	-1.46
CC(C)C[C@H](NC(=O)N1CCn2c1nc1ccccc12)C(=O)NC1CCCCC1	11.7
O=[N+]([O-])c1cn(Cc2ccc(Cl)cc2)cn1	10.8

SMILES	hERG current change (%, negative = inhibition) at 1uM [%]
Cc1ccc2nc(Cl)c(/C=N/NC(=O)[C@H]3C[C@@H]3c3ccccc3)cc2c1	12.6
CCn1c(SCC(=O)c2[nH]c(C)c(C(C)=O)c2C)nnc1-c1ccncc1	0.209
CC(C)(C)C1C/C(=C/c2ccccn2)C(=O)/C(=C/c2ccccn2)C1 (stereo not shown)	1.84
CCOC(=O)c1sc(=S)n(-c2ccccc2)c1SC	6.27
COc1cc2c(cc1OC)-c1cc(Nc3ccc(N(C)C)cc3)nc(=O)n1CC2	16.8
Nn1c(SCC(=O)Nc2nccs2)nnc1-c1ccccn1	10.3
CC1(c2ccccc2Cl)NC(=O)N(CC(=O)N2c3ccccc3NC(=O)C2(C)C)C1=O (stereo not shown)	0.853
CCOC(=O)CSc1nsc(SCC(=O)OCC)c1C#N	15.7
CC(/C=N/NC(=O)c1ccncc1)=C\c1ccc(C(C)C)cc1	-0.974
CSc1ccccc1NC(=O)CN(Cc1ccccc1)S(C)(=O)=O	12.1
COc1ccc(S(=O)(=O)Nc2cccnc2)cc1	13.6
CN(CCCC(=O)Nc1ccc(Br)cc1F)S(=O)(=O)c1ccccc1	6.06
CCCCCCSc1ccc([C@H]2N[C@@](C)(C(=O)OC)[C@H]3C(=O)N(CC)C(=O)[C@@H]23)cc1.O=C(O)C(F)(F)F	-4.34
COc1ccc(CCNC(=O)c2cc3c(=O)n4ccccc4nc3n(C3CCCCC3)c2=N)cc1	-67.6
O=C(O)CC(C(=O)Nc1ccc(Cl)cc1)N1CCCCCC1 (stereo not shown)	17.1
CCOc1ccc(C(=O)NCC(=O)NNC(=O)CN(C)S(=O)(=O)c2ccc(Cl)cc2)cc1	18.3
CC(C)Oc1ccc(S(=O)(=O)N2CCCCC2)cc1NC(=O)C1CCCC1	5.7
O=C(CCC1CCCN(C(=O)c2ccc3c(c2)OCO3)C1)NCc1ccc(F)c(F)c1 (stereo not shown)	6.93
O=C(Nc1nnc(C2CC2)s1)C1CC(=O)N(c2ccc3c(c2)OCCO3)C1 (stereo not shown)	5.14
OC[C@H]1O[C@H](OC[C@H]2OC(O)[C@H](O)[C@@H](O)[C@@H]2O)[C@H](O)[C@@H](O)[C@@H]1O (stereo partly shown)	16.9
O=C(COC(=O)c1ccccn1)NCc1ccccc1	5.09
Cn1c(CNC(=O)c2ccco2)nnc1SCC(=O)Nc1cccc(F)c1	12.2

SMILES	hERG current change (%, negative = inhibition) at 1uM [%]
CC(C)(SC(=S)N1CCOCC1)C(=O)O	9.22
CCOc1ccc(NC(=O)CN(C)C(=O)CCc2ccccc2Cl)cc1OCC	-2.56
C=C(C)CSc1nc2c(c(=O)[nH]c(=O)n2C)n1Cc1ccccc1	3.66
O=C(Nc1cccnc1)C1=NN(C2CCS(=O)(=O)C2)C(=O)CC1 (stereo not shown)	18.7
COc1ccccc1/C=C1/C(=O)ON=C1C	9.9
CC(C)(CO)NCc1cccc(OCc2ccc(Cl)cc2)c1	-5.35
COC(=O)Cc1cc(=O)n2[nH]c(C)c(-c3ccccc3)c2n1	6.12
CC(/C=C/c1cccc([N+](=O)[O-])c1)=N\NC(=O)c1ccncc1	-8.67
CCC(=NCCc1c(C)[nH]c2ccc(C)cc12)C1=C(O)CC(c2ccccc2)CC1=O (stereo not shown)	12.1
COc1cccc(-n2c(CN3CCN(c4ccc(C)cc4)C(C)C3)nc3ccc([N+](=O)[O-])cc3c2=O)c1 (stereo not shown)	3.38
COc1ccc(CNC(=O)C(=O)NCC2OCCN2S(=O)(=O)c2ccccc2)cc1 (stereo not shown)	5.84
COc1ccc(OCC(=O)Nc2ccc(N3CCCCC3)cc2)cc1	6.16
CCCN1C(=O)/C(=N\OCC(=O)NCC(F)(F)F)c2ccccc21	2.02
COc1ccc(C2(C(=O)N3CCOCC3)CCOCC2)cc1OC	22.3
CCC1Oc2ccccc2N(CC(=O)NCCC2=CCCCC2)C1=O (stereo not shown)	1.04
COc1ccc2c(c1)cc1c(=O)n(CC(=O)NCCCOC(C)C)nc(C)n12	19.5
CN(C)c1cc(N)c2ccccc2n1.O=C(O)c1cc(=O)[nH]c(=O)[nH]1	-0.834
Cc1cc(C)nc(SCc2cn3cc(Cl)ccc3n2)n1	3.34
C=CC[N+](C)(C)CC(=O)OCc1ccccc1.[Br-]	-12.6
Cc1nn(-c2ccccc2)c(C)c1CN	-2.59
CCN(c1ccc(C)cc1C)S(=O)(=O)c1nnc(NC(=O)C(C)C)s1	12.5
CSc1ccccc1NC(=S)Nc1cc(C)cc(C)c1	11.1

SMILES	hERG current change (%, negative = inhibition) at 1uM [%]
CCOCCCNC(=O)/C=C1\Sc2ccccc2N(Cc2ccccc2F)C1=O	5.71
CCCCN1CCCCC1C(=O)Nc1c(C)cccc1C.Cl (stereo not shown)	6.7
CCOC(=O)Cc1csc(NC(=O)CSc2nc3cccnc3n2CC)n1	4.39
O=C(NCCN1C(=O)S/C(=C\c2cccs2)C1=O)c1ccco1	1.6
CCN(CC)S(=O)(=O)c1cc(NS(=O)(=O)c2cccc(Cl)c2Cl)ccc1C	16.4
CCCCN(C(=S)Nc1cccc(SC)c1)C1CCN(C(C)=O)CC1	-5.63
COc1ccc(-n2c(Cc3cccn3C)nnc2SCC(=O)Nc2ccc(Cl)cc2)cc1	-1.58
Cc1[nH]c2ccccc2c1C(=O)COC(=O)c1c(-c2c(F)cccc2Cl)noc1C	12.1
COc1ccccc1NC(=O)C(C)OC(=O)CSCC(=O)Nc1ccc(C)cc1C (stereo not shown)	8.65
Cc1noc(C)c1C(=O)NC1CCCc2ccccc21 (stereo not shown)	-3.02
Cc1c(C(=O)OCCOc2ccc(Br)cc2)sc(=S)n1C	3.47
COc1nc(-c2ccccc2)cc(C(F)(F)F)n1	-8.54
CCOc1cc(NC(=O)Nc2ccccc2)c(OCC)cc1NC(=O)CC	17.4
CCCOc1ccc(-c2c(C(=O)N/N=C/C3CC=CCC3)nnn2-c2nonc2N)cc1 (stereo not shown)	18.3
Cc1nn(C(=O)CCC(=O)NCc2ccccc2Cl)c2ccccc12	14.4
O=C(NN1C(=O)C2C3C=CC([C@@H]2C1=O)C31CC1)c1ccccc1 (stereo partly shown)	14.2
Cc1cccc(-n2c(CNC(=O)c3ccc(S(=O)(=O)N4CCCC4)cc3)n[nH]c2=S)c1	3.32
CCc1ccc(-c2nnn(Cc3nn[nH]n3)n2)cc1	-6.68
CC(C)Nc1nc(Cl)nc(NC(C)C)n1	16.9
CC(=O)C1=C(C)Nc2ncnn2C1c1cccc(O)c1 (stereo not shown)	20.9
CN1C(=O)SC(Nc2ccc(F)cc2)C1=O (stereo not shown)	13.3
O=C(NN1C(=O)C2C3C=CC(C3)C2C1=O)c1ccccc1 (stereo not shown)	13
